Experimental data: PubChem BioAssay AID686978 (National Center for Advancing Translational Sciences (NCATS), 2013)
About 64,000 (15%) of roughly 420,000 compounds were called active. Inconclusive results, whose numbers are uncertain, are shown with a selection of clear calls. The call rests on the fitted dose curve; in most records, active means well fitted inhibition curve with a large enough effect; inconclusive means small, poorly fitted or top-dose-only effect; inactive means flat fitted curve, though single readings scatter. No potency is given beside an inconclusive call; the fits are too rough.

assay: qHTS for Inhibitors of human tyrosyl-DNA phosphodiesterase 1 (TDP1): qHTS in cells in absence of CPT; settings: DT40 Tdp1-/- hTDP1 cells, no CPT, ATP luminescence, 48 h; activity change, negative = growth inhibition: at 46.2 µM (top of the series) unless noted; further: nearly all actives have a fitted effect of over 55% in size
How it was run: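 Compound effects on proliferation are scored in DT40 Tdp1-/-;hTDP1 cells in the absence of CPT. ATP levels (CellTiter-Glo luminescence) are recorded after a ≥48 hr, 37 °C incubation.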
On the % scale 0 is the no-effect control and ±100 the full control effect; potency means the concentration at half of the fitted maximal effect; tags describe the fitted curve by direction and shape.

| Structure (SMILES) | Potency | activity change, negative = growth inhibition |
| --- | --- | --- |
| Cc1ccc(NC(=S)NC(=O)C2CCC2)cc1C | inactive | – |
| Cc1ccc(NC(=O)Cn2c(=O)n(Cc3nc(C)no3)c(=O)c3cc4c(cc32)OCO4)cc1 | inactive | – |
| CC(=O)N1CCN(c2ccc(NC(=S)NC(=O)COc3ccc(C(C)(C)C)cc3)cc2)CC1 | inconclusive [inhibitor, single point] | – |
| COc1cc(OC)cc(C(=O)Nc2ccc(C(=O)Nc3ccccc3OC)cc2)c1 | inconclusive [inhibitor, partial curve, poor fit] | – |
| COc1cc(/C=C2/C(C)=C(C#N)c3nc(N)c(C#N)c(C)c32)ccc1OCC(=O)O | inactive | – |
| CCCCNC(=O)[C@@H]1Cc2ccccc2N1C(=O)[C@H](N)CC | inconclusive [inhibitor, full curve, poor fit] | – |
| CSc1nc(SCC(=O)O)c2sc3nc(-c4ccccc4)c4c(c3c2n1)CCC4 | inconclusive [inhibitor, single point] | – |
| Cc1ccc(S(=O)(=O)N2CCN(C(=O)C3CCCC3)CC2)cc1C | inconclusive [inhibitor, single point] | – |
| Clc1cc(Cl)c2nc(N3CCCC3)sc2c1 | inconclusive [inhibitor, single point] | – |
| N/C(=N\OC(=O)c1ccc([N+](=O)[O-])cc1Cl)c1ccccn1 | inconclusive [inhibitor, single point] | – |
| CC(=O)NC(CC(=O)OCC(=O)Nc1cc(S(=O)(=O)N2CCCCC2)ccc1C)c1ccccc1 (configuration not stated) | inconclusive [inhibitor, single point] | – |
| CC(C)(C)C(C(=O)NCc1ccccc1)N1CCN(CCN2CCOCC2)CC1 (configuration not stated) | inactive | – |
| CCOc1ccccc1N(CC(=O)NCC1CCCO1)C(=O)CNS(=O)(=O)c1ccccc1 (configuration not stated) | inactive | – |
| CC(=O)NCC(c1cccs1)S(=O)(=O)c1ccc(F)cc1 (configuration not stated) | inactive | – |
| Cc1ccc(CSCC(=O)N(C)CC(=O)Nc2ccc(Br)cc2C)cc1 | inconclusive [inhibitor, single point] | – |
| COc1ccc(NC(=O)CN(C)CC(=O)Nc2cccc(C(F)(F)F)c2)cc1 | inconclusive [inhibitor, single point] | – |
| O=C(c1ccc(NC(=S)NCc2ccc(Cl)cc2)cc1)N1CCCCC1 | active: 23.1 µM | – |
| CC1CCN(C(=O)C(NS(=O)(=O)c2cccc3nsnc23)C(C)C)CC1 (configuration not stated) | inactive | – |
| O=c1nc(Nc2cccc(Cl)c2)oc2cc(Cl)oc(=O)c12 | inactive | – |
| O=C(/C=C/c1ccccc1Cl)Nc1nc(-c2cccs2)ns1 | inconclusive [inhibitor, partial curve, poor fit] | – |
| O=C(Cn1[nH]c(=O)c2ccccc2c1=O)N1CC=C(c2ccccc2)CC1 | active: 15.8 µM | – |
| CC(C)(C)C(=O)c1c(N)[nH]c(C(=O)c2ccccc2)c1-c1ccccc1Br | active: 16.4 µM | – |
| CCc1nc2ccc(C(=O)NCc3ccc(OC)cc3)cn2c1N(C)CCC(C)C | active: 23.1 µM | – |
| Cc1cccn2c(=O)nc(SCC(=O)NCc3ccco3)nc12 | inactive | – |

| Structure (SMILES) | Potency | activity change, negative = growth inhibition |
| --- | --- | --- |
| O=C(N/N=C/c1cccc(O)c1)c1csc2ccccc12 | active: 0.651 µM | – |
| Cc1[nH]c2ccccc2c1SCC(=O)N1CCCc2ccccc21 | inconclusive [inhibitor, single point] | – |
| Cc1ccc2cc3cc(C(=O)NC4CC4)oc3nc2c1 | inconclusive [inhibitor, single point] | – |
| O=C(O)c1cccc(Nc2nc(N3CCOCC3)nc(N3CCOCC3)n2)c1 | inactive | – |
| O=C(N/N=C(\c1ccccc1)c1ccccn1)c1cccc([N+](=O)[O-])c1 | active: 1.03 µM | – |
| COc1cccc(CNC(=O)C(C)n2c(=O)cc(-c3ccccc3)c3c(C)nn(C)c32)c1 (configuration not stated) | inactive | – |
| Cc1nc2ccn(Cc3ccco3)c(=O)c2cc1C(=O)N1CCN(c2ccc(F)cc2)CC1 | inconclusive [inhibitor, single point] | – |
| COc1cc(NC(=S)NNC(=O)C(C)(C)O)cc(OC)c1 | inactive | – |
| CC(C)NC(=O)N(C)C[C@H]1Oc2c(NS(=O)(=O)c3cccs3)cccc2C(=O)N([C@H](C)CO)C[C@@H]1C | inconclusive [inhibitor, partial curve] | – |
| COc1ccc(CC(=O)N/N=C(\C)c2cccs2)cc1OC | inactive | – |
| O=C(CN1C(=O)C(=O)N(Cc2ccccc2)C1=O)Nc1cc(Cl)cc(Cl)c1 | inconclusive [inhibitor, single point] | – |
| CC(C)Nc1ccc(C(CC(N)=O)NC(=O)c2ccc(Br)cc2)cc1[N+](=O)[O-] (configuration not stated) | inconclusive [inhibitor, partial curve] | – |
| O=C(COC(=O)c1cccnc1Cl)NCc1cccs1 | inactive | – |
| Cc1[nH]c2ccccc2c1C(=O)C(C)OC(=O)c1ccc(NC(=O)CC#N)cc1 (configuration not stated) | inconclusive [inhibitor, single point] | – |
| CN(Cc1ccccc1)C(=O)CSc1nc(-c2ccc(F)cc2)cc(C(F)(F)F)n1 | active: 14.6 µM | – |
| Cc1cccc(NC(=S)NCc2ccc3[nH]c4c(c3c2)CCCC4)c1 | active: 18.4 µM | – |
| Cc1cc(Cl)ccc1OCC(=O)NCCOC(=O)Nc1sc(=S)n(C)c1C | inconclusive [inhibitor, single point] | – |
| CCN1CCN(C(CNS(=O)(=O)c2ccc(Cl)cc2)c2cccnc2)CC1 (configuration not stated) | inactive | – |
| C=Cc1ccc(CSc2cc(C)nc3nc(C)nn23)cc1 | inconclusive [inhibitor, single point] | – |
| O=Cc1cn(CC(=O)N2CCCCC2)c2ccccc12 | – | inconclusive: -36.7% [inhibitor] |
| CCc1ccc(NC(=O)CCCN2C(=O)C3CC=CCC3C2=O)cc1 (configuration not stated) | – | inconclusive: -13.6% [inhibitor] |
| O=C1NC[C@H](CCCCN2C[C@H](Cc3ccc(O)cc3)N(CCC3CCCCC3)C(=O)C2=O)N(CCC2CCCCC2)C1=O | inactive | – |
| Cc1nc(Nc2ccccc2)[nH]c(=O)c1CCC(C)C | inconclusive [inhibitor, partial curve] | – |
